# Results published in ChEMBL document CHEMBL4888484, “Replenishing the malaria drug discovery pipeline: Screening and hit evaluation of the MMV Hit Generation Library 1 (HGL1) against asexual blood stage Plasmodium falciparum ,using a nano luciferase reporter read-out” (2022).
# Among all 150,000 compounds or so, about 540 (0.36%) showed an effect of 50% or more. The list shows a part of the results.
# Tested on: Plasmodium falciparum
# Assay: Primary screen in NF54 nanoGlo assay, in single point, at 2uM, 72h; a lower Z score goes with more inhibition
# Format: functional, Erythrocyte
# Conditions: timepoint 72 hour
Structure (SMILES),% Inhibition,Z score
CC1CCOC1C(=O)NCCCNc1cccc(F)c1 (stereo not drawn),-7%,1.01
Cc1nc(-c2cccc(NC(=O)c3cc(Cl)c4c(c3)OCCCO4)c2)cs1,-25%,2.95
Cc1nnc(CN2CCCCCC2CC(O)c2cccs2)s1 (stereo not drawn),-2%,0.34
Cc1cc(C(=O)N(Cc2cc(C3CC3)n(C)n2)C2CCCC2)no1,-8%,1.52
Cn1ccc(C(=O)Nc2ccc(F)c(NC(=O)C3CCCCC3)c2)cc1=O,-30%,3.49
O=C(NCCN1CCOCC1)C1CCCCC1,2%,-0.29
c1cc(-c2nc([C@H]3CCOC3)n[nH]2)nc(-n2cnnc2)c1,-22%,4.22
CN(C)c1cccc(C(=O)N2CCC[C@H](c3nccn3CC3CC3)C2)c1,-12%,1.63
O=C(CN1CCCC1C1CCCC1)N1CCOC2CCCCC21 (stereo not drawn),8%,-1.43
Cc1ccc(-c2noc3c(NCc4cccc(Cl)c4)ncnc23)cc1,-14%,1.91
O=C(c1ccccc1Cc1ccc(Cl)cc1)N1CCC[C@H]1CO,4%,-0.69
COCC[C@H]1CN(CCCCc2ccccc2)CCO1,-11%,1.17
O=C(C1c2ccccc2Oc2ccccc21)N1CCCc2ccccc21,4%,-0.42
Cc1c(CNC(=O)NC[C@H]2CCCN2Cc2ccccc2)cnn1C,2%,-0.26
Cc1ccc(C(N)=O)c(-c2cccc(-c3cc[nH]n3)c2)n1,3%,-0.36
Cc1ccc(C(=O)N2C[C@H](C(=O)O)[C@@H](c3ccc4c(c3)OCO4)C2)s1,6%,-1.06
COc1ccc(CN(C(=O)c2ccc(C)cc2)c2c(C)n(C)n(-c3ccccc3)c2=O)cc1,-4%,0.49
CCn1cc(CNC(=O)[C@@H]2CC(Cc3ccc(F)cc3)=NO2)cn1,0%,0.05
Cc1ccccc1CCNC(=O)c1cn(C(c2ccccc2)c2ccccc2)nn1,-3%,0.3
Nc1nnc([C@@]23COC[C@@H]2CN(Cc2cc(F)cc(Cl)c2)C3)o1,0%,0.04
Cn1ccnc1CC[C@H]1CCCCN1Cc1cc(F)ccc1Cl,-13%,1.78
CCC(=O)N1CCC[C@H]1C(=O)NCc1ccc2[nH]cnc2c1,-3%,0.62
C[C@H]1CCCN(CCn2cc(-c3cnc(-c4cccs4)nc3)nn2)C1,-23%,2.8
COc1ccc(-c2ccc(C(C)C)nn2)cn1,-5%,0.89
